Measured values published in PubChem BioAssay AID2675 (National Center for Advancing Translational Sciences (NCATS), 2010).
The whole screen tested about 280,000 compounds, of which about 100 (0.036%) were called active. The shares of active, inactive and inconclusive entries below differ from those in the screen. The call rests on the fitted dose curve; in most records, active means well fitted inhibition curve with a large enough effect in the signal ratio, with a control signal flat (not every such curve was filed as active); inconclusive means small, poorly fitted or top-dose-only effect, or effect the other way, or a change in a side signal; inactive means no such curve, though single readings can be large or run the other way; the % refers to the signal ratio. A potency beside an inconclusive call is a rough fit, not a confirmed value. A note “side channel” means that the fit belongs to a control or component signal, not to the main read-out.

target: Muscleblind-like protein 1 (Homo sapiens) (UniProt Q9NR56); experiment: qHTS Assay for Inhibitors of MBNL1-poly(CUG) RNA binding; settings: TR-FRET MBNL1-His/biotin-(CUG)12 binding, 665/545 ratio; activity change, negative = inhibition: at 57.5 µM (top of the series)
UniProt Q9NR56, sequence (Q9NR56 whole entry, looked up): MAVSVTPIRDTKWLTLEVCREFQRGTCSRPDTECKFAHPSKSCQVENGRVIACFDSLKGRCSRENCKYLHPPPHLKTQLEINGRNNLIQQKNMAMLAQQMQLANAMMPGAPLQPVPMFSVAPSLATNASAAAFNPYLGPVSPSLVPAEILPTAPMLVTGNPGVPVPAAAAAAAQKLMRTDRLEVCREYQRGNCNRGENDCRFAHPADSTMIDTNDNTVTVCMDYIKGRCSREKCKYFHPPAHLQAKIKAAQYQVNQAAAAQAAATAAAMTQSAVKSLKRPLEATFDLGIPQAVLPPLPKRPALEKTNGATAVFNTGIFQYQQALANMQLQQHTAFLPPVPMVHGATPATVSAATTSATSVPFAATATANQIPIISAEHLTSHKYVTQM
How it was run: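 His-tagged MBNL1 binding to biotinylated (CUG)12 RNA was measured by TR-FRET using terbium anti-His antibody (0.055 ng/ul final) and streptavidin-XL665 (5 nM final). Compounds were titrated 92 nM to 58 uM; 60 min at room temperature.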
On the % scale 0 is the no-effect control and ±100 the full control effect; potency means the concentration at half of the fitted maximal effect; tags describe the fitted curve by direction and shape or compound fluorescence and quenching.

Row | SMILES | Potency | activity change, negative = inhibition
1 | CCOC(=O)C1C(=O)C=C(c2cccc(NS(C)(=O)=O)c2)CC1c1ccco1 (centres undefined) | inconclusive: 12.6 µM [quencher, side channel, partial curve] | –
2 | CCC1CCCCN1C(=O)Cn1nc([N+](=O)[O-])c(Cl)c1C (centres undefined) | inconclusive: 31.6 µM [quencher, side channel, single point] | –
3 | COc1ccc(NC(=O)C2=Cc3ccccc3OC2)cc1 | inconclusive: 25.1 µM [quencher, side channel, single point] | –
4 | COc1ccc(CC(=O)O/N=C(\N)c2cccc([N+](=O)[O-])c2)cc1 | inconclusive: 20 µM [quencher, side channel, single point] | –
5 | N#CCc1nc2n(n1)Cc1ccccc1-2 | – | inactive: -14.2%
6 | COc1cccc(-c2cc(-c3cccnc3)nc(N)c2C#N)c1 | inconclusive: 39.8 µM [fluorescent, side channel, single point] | –
7 | Cc1ccc(N=C2C(=O)Nc3ccccc32)c(C)c1 | inconclusive: 14.1 µM [quencher, side channel, partial curve] | –
8 | CC(C)(C)NC(=O)CSc1nc(O)cc(=O)[nH]1 | inconclusive: 7.08 µM [quencher, side channel, single point] | –
9 | FC(F)(F)c1nc2ccccc2nc1N/N=C\c1ccccc1 | inconclusive: 39.8 µM [quencher, side channel, single point] | –
10 | O=C(O)CCN1C(=O)c2ccc(NC(=O)COc3ccccc3)cc2C1=O | inconclusive: 28.2 µM [quencher, side channel, partial curve] | –
11 | C/C(=N/NC(=O)CN1CCN(Cc2ccccc2)CC1)c1ccc([N+](=O)[O-])cc1 | inconclusive: 4.47 µM [quencher, side channel, partial curve] | –
12 | O=C(O)CCCCCNc1nc2ncn(Cc3ccccc3)c2c(=O)[nH]1 | inconclusive: 5.62 µM [quencher, side channel, single point] | –
13 | COc1cccc2c1C(=O)c1c(O)c3c(c(O)c1C2=O)C[C@@](O)(C(C)=O)C[C@@H]3O[C@H]1C[C@H](N)[C@H](O)[C@H](C)O1 | inconclusive: 4.47 µM [quencher, side channel, partial curve] | –
14 | CCN(CC)CCN(C(=O)c1ccc2c(c1)CCCC2)c1nc2ccc(C)cc2s1 | – | inactive: 1.44%
15 | CCCCC(CC)CNC(=O)CCS(=O)(=O)c1cccc2nonc12 (centres undefined) | inconclusive: 12.6 µM [quencher, side channel, partial curve] | –
16 | CCN(CC)c1ccc(/C=N/n2c(=S)[nH]nc(C)c2=O)cc1 | inconclusive: 8.91 µM [quencher, partial curve] | –
17 | CCC(Oc1ccc2c(c1)C(=O)CC(C)(C)O2)C(=O)NCCN1CCCCCC1 (centres undefined) | inconclusive: 6.31 µM [quencher, side channel, single point] | –
18 | CN(C)c1ccc(/C=C(\C#N)C(=O)c2ccccc2)cc1 | inconclusive: 3.16 µM [quencher, side channel, full curve, poor fit] | –
19 | COCc1nc2ccccc2n1Cc1cccc(C)c1 | – | inactive: 1.66%
20 | COC(=O)c1cc(NS(=O)(=O)c2ccc(N3CCOCC3)c(NC(C)=O)c2)cc(C(=O)OC)c1 | inconclusive: 0.1 µM [fluorescent, side channel, full curve] | –

Row | SMILES | Potency | activity change, negative = inhibition
21 | CCOc1ccc(C2/C(=C(\O)c3ccc4c(c3)OCCO4)C(=O)C(=O)N2Cc2cccnc2)cc1OCC (centres undefined) | – | inactive: 14.7%
22 | CCOc1ccc(NC(=O)CC2NCCNC2=O)cc1 (centres undefined) | inconclusive: 8.91 µM [quencher, side channel, single point] | –
23 | O=C(CCN1C(=O)c2cccc([N+](=O)[O-])c2C1=O)Nc1nccs1 | inconclusive: 12.6 µM [quencher, side channel, partial curve] | –
24 | O=C(C1=C(O)C(=O)N(Cc2ccco2)C1c1cccc([N+](=O)[O-])c1)c1ccco1 (centres undefined) | inconclusive: 35.5 µM [quencher, side channel, single point] | –
25 | O=CN1CCN(C(=O)c2cccc3c2-c2ccccc2C3=O)CC1 | inconclusive: 14.1 µM [quencher, side channel, partial curve] | –
26 | CCn1c(=N)c(S(=O)(=O)c2ccc(F)cc2)cc2c(=O)n3ccccc3nc21 | inconclusive: 2.82 µM [quencher, side channel, full curve] | –
27 | Cc1cc2[nH]c(=O)c(=O)[nH]c2cc1S(=O)(=O)Nc1ccccc1F | – | inactive: -6.53%
28 | Cc1ccc2oc(=O)n(CC(=O)OCCC(C)C)c2c1 | – | inactive: -3.47%
29 | Cc1ccn2c(CNCCCn3cccn3)c(C(=O)N3CCCCCC3)nc2c1 | – | inactive: 2.51%
30 | C=CCOC(=O)c1sc(NC(=O)c2ccc(OC)cc2)nc1C | inconclusive: 31.6 µM [fluorescent, side channel, single point] | –
31 | O=C(CNC(=O)Cn1ccc2ccccc2c1=O)NCCCN1CCN(c2cccc(Cl)c2)CC1 | – | inactive: -6.62%
32 | COc1ccccc1-c1cc(C(F)(F)F)nc(S(=O)(=O)CCCC(=O)Nc2cc(C)on2)n1 | – | inactive: 12.9%
33 | COc1cc([N+](=O)[O-])ccc1NC(=O)CSc1n[nH]c(C(C)C)n1 | inconclusive: 17.8 µM [quencher, partial curve] | –
34 | Cc1nonc1NC(=O)CSc1nnc(-c2ccoc2C)n1-c1cccc(Cl)c1 | inconclusive: 63.1 µM [inhibitor, single point] | –
35 | Cc1c(C(=O)NN)sc(-c2ccccc2)c1C#N | – | inactive: 30.9%
36 | Cc1ccc(Cl)c2c1=NC(=O)C=2c1[nH]c(=S)[nH]c1O | inconclusive: 12.6 µM [quencher, side channel, partial curve] | –
37 | CN1CCN(c2ccc([N+](=O)[O-])cc2NC(=O)c2ccccc2Cl)CC1 | inconclusive: 12.6 µM [quencher, partial curve] | –
38 | C=CCOn1c(=O)c(-c2cc3ccccc3o2)[n+]([O-])c2ccccc21 | inconclusive: 2 µM [quencher, full curve] | –
39 | COc1ccc(/C=C2\SC(=S)N(CCCC(=O)N3CCCCC3CCO)C2=O)cc1 (centres undefined) | inconclusive: 15.8 µM [quencher, partial curve] | –
